Source: PubChem BioAssay AID686978 (National Center for Advancing Translational Sciences (NCATS), 2013)
Values joined by “and” are separate entries in the source; they are usually repeats but may differ in a detail not shown here. Equal entries are not always repeated. Hit rate of the full screen: of about 420,000 compounds, about 64,000 (15%) were called active. Inconclusive results, whose numbers are uncertain, are shown with a selection of clear calls. Calls come from the whole dose curve; as a rule, active = well fitted inhibition curve with a large enough effect; inconclusive = small, poorly fitted or top-dose-only effect; inactive = flat fitted curve, though single readings scatter. A potency beside an inconclusive call is a rough fit, not a confirmed value.

assay: qHTS for Inhibitors of human tyrosyl-DNA phosphodiesterase 1 (TDP1): qHTS in cells in absence of CPT; conditions: DT40 Tdp1-/- hTDP1 cells, no CPT, ATP luminescence, 48 h; series mostly up to 46.2 µM; note: nearly all actives have a fitted effect of over 55% in size
Outline: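 Compound effects on proliferation are scored in DT40 Tdp1-/-;hTDP1 cells in the absence of CPT. ATP levels (CellTiter-Glo luminescence) are recorded after a ≥48 hr, 37 °C incubation.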
Potency is the fitted concentration of half-maximal effect; tags give direction and shape of the fitted curve.

With CCOC(=O)C1=C(C)N=C2SCCC(=O)N2C1c1cc(Br)ccc1OC (stereo not given) as the molecule, how does the Potency read?
Its Potency is “inactive”.

For Cc1ccc2c(c1)[C@H]1OCC[C@H]1[C@@H](c1ccncc1)N2, which Potency is on record?
Its Potency is inconclusive: 13 µM [inhibitor, partial curve].

With CCOC(=O)C1(Cc2cccc(Cl)c2)CCCN(C(=O)c2ccc(COC)s2)C1 (stereo not given) as the molecule, how does the Potency read?
The Potency was active: 20.6 µM.

For OC[C@H]1O[C@H](OC[C@H]2OC(O)[C@H](O)[C@@H](O)[C@@H]2O)[C@H](O)[C@@H](O)[C@@H]1O (stereo not given in full), which Potency is on record?
The Potency was “inactive”.

For CCOC(=O)c1scc(-c2ccccc2)c1S(=O)(=O)N1CCN(c2ccc(Cl)cc2)CC1, which Potency is on record?
The Potency was active: 13 µM.

Which Potency does the source give for N#Cc1c(-c2ccccc2F)cc(-c2cccnc2)nc1N here?
The Potency was inconclusive: 16.4 µM [inhibitor, single point].

With OC(c1cccc(Cl)c1)c1nc(-c2ccc(F)c(Cl)c2)cs1 (stereo not given) as the molecule, how does the Potency read?
Its Potency is inconclusive: 29.1 µM [inhibitor, single point].

Which Potency does the source give for Cc1ccccc1NC(=O)NCCc1c[nH]c2ccccc12 here?
Its Potency is inconclusive: 18.4 µM [inhibitor, single point].

With COc1ccc(-c2cc(C)no2)cc1S(=O)(=O)N1CCN(c2cccc(C)c2)C(C)C1 (stereo not given) as the molecule, how does the Potency read?
Its Potency is active: 23.1 µM.

For Cc1ccc(S(=O)(=O)N2[C@H](CC(=O)Oc3ccccc3)OC[C@@H]2C(C)C)cc1, which Potency is on record?
Its Potency is active: 13 µM.

Which Potency does the source give for CC(=O)c1cccc(NC(=O)c2cccc(S(=O)(=O)N(C)C)c2)c1 here?
Its Potency is inconclusive: 29.1 µM [inhibitor, single point].

Which Potency does the source give for CCOc1ccc(CCNC(=O)c2ccc(C)c(N3CCCC3=O)c2)cc1OCC here?
Its Potency is inconclusive: 25.9 µM [inhibitor, single point].

Which Potency does the source give for CC1=C(C(=O)OCc2ccccc2)C(c2cccc3ccccc23)NC(=O)N1CCCC(=O)O (stereo not given) here?
Its Potency is “inactive”.

For CC1CCN(C(=O)Cn2c(=O)n(Cc3ccc4c(c3)OCO4)c(=O)c3ccccc32)CC1, which Potency is on record?
Its Potency is inconclusive: 9.2 µM [inhibitor, partial curve].

Which Potency does the source give for Cc1ccc(S(=O)(=O)N(Cc2cccc(F)c2)C(=O)N2CCN(C)CC2)cc1 here?
The Potency was “inactive”.

For COc1ccccc1OCCNC(=O)c1ccc(C(C)(C)C)cc1, which Potency is on record?
Its Potency is inconclusive: 29.1 µM [inhibitor, single point].

For O=C(C[N+]12CN3CN(CN(C3)C1)C2)c1ccc(Br)cc1, which Potency is on record?
The Potency was inconclusive: 35.5 µM [inhibitor, single point].

For Nc1ccn(C2OC(CO)C(O)C2F)c(=O)n1 (stereo not given), which Potency is on record?
The Potency was active: 2.06 µM.

Which Potency does the source give for COc1ccc(F)cc1S(=O)(=O)Nc1cc2c3c(c1)CC(=O)N3CCC2 here?
The Potency was inconclusive: 23.1 µM [inhibitor, single point].

For CCCCNC(=O)c1ccc2c(c1)N(CC)C(=O)c1ccccc1S2(=O)=O, which Potency is on record?
The Potency was inconclusive: 25.9 µM [inhibitor, single point].

Which Potency does the source give for CCOc1cc(/C=N/NC(=O)c2nn(C)cc2Br)ccc1OCc1ccccc1Cl here?
Its Potency is active: 16.4 µM.

With CCOc1cccc(-c2c(C(=O)N/N=C(\C)c3ccncc3)nnn2-c2nonc2N)c1 as the molecule, how does the Potency read?
Its Potency is “inactive”.

With COc1cccc(N2CCN(C(=O)c3cnc4c(-c5ccccc5)c(C)nn4c3C)CC2)c1 as the molecule, how does the Potency read?
Its Potency is inconclusive: 29.1 µM [inhibitor, single point].

With C/C(N)=C(/C#N)C(=O)CSc1nnc(Nc2cccc(C)c2)s1 as the molecule, how does the Potency read?
The Potency was inconclusive: 23.1 µM [inhibitor, single point] and inconclusive: 7.31 µM [inhibitor, partial curve].

With CC(=O)NC(c1cccc(F)c1)c1nc(-c2cccc(C(F)(F)F)c2)cs1 (stereo not given) as the molecule, how does the Potency read?
Its Potency is inconclusive: 18.4 µM [inhibitor, single point].

With COc1ccc(-c2cc(=O)oc3cc(OCC(=O)NCc4ccccn4)ccc23)cc1 as the molecule, how does the Potency read?
Its Potency is active: 23.1 µM.

For Cc1cc(OCC(O)CN2CCN(c3ccccn3)CC2)cc(C)c1Cl (stereo not given), which Potency is on record?
The Potency was inconclusive: 29.1 µM [inhibitor, single point].

For CCc1nnc(NC(=O)CCC(=O)NC2CCCCCCC2)s1, which Potency is on record?
Its Potency is “inactive”.

With CC(C)c1ccc(CC(=O)N2CCC2(C)C(=O)Nc2cnc3ccccc3c2)cc1 (stereo not given) as the molecule, how does the Potency read?
The Potency was inconclusive: 29.1 µM [inhibitor, single point].

Which Potency does the source give for CCN1CCN(c2c(/C=C3\SC(=S)N(Cc4ccco4)C3=O)c(C)c(C#N)c(=O)n2C)CC1 here?
The Potency was active: 14.6 µM.

Which Potency does the source give for CCN(Cc1ccncc1)S(=O)(=O)c1ccc(C(C)=O)cc1 here?
The Potency was active: 11.6 µM.

For COc1ccc(OC)c2c(C)cc(N3CCN(C(=O)c4ccc(F)cc4)CC3)nc12, which Potency is on record?
The Potency was inconclusive: 29.1 µM [inhibitor, single point].

With O=C1CSC(=S)N1N=Cc1c[nH]c2ccc(Br)cc12 as the molecule, how does the Potency read?
Its Potency is inconclusive: 16.4 µM [inhibitor, single point].

With COc1ccc(C(CNC(=O)CCNC(=O)c2ccccc2Cl)N2CCCC2)cc1 (stereo not given) as the molecule, how does the Potency read?
Its Potency is “inactive”.

With O=c1[nH]c(C2CCN(S(=O)(=O)c3ccccc3)CC2)nc2c1nnn2Cc1c(F)cccc1Cl as the molecule, how does the Potency read?
The Potency was “inactive”.

Which Potency does the source give for CN(Cc1ccccc1)C(=O)COc1ccc(C(C)(C)C)cc1 here?
The Potency was inconclusive: 9.2 µM [inhibitor, partial curve].

For Cn1c(=O)n(C)c2cc3[nH]cnc3cc21, which Potency is on record?
Its Potency is “inactive”.

For CCOCCCNC(=O)CN1N=C(c2ccc(C)cc2)CCC1=O, which Potency is on record?
The Potency was “inactive”.

With CCCCN(CCCC)CC(O)COc1ccccc1Br (stereo not given) as the molecule, how does the Potency read?
The Potency was active: 16.4 µM.

For COc1ccc(N2CCN(S(=O)(=O)c3ccc4c(c3)NC(=O)C(C)C(=O)N4)CC2)cc1 (stereo not given), which Potency is on record?
Its Potency is inconclusive: 18.4 µM [inhibitor, single point].

For N#Cc1ccc(S(=O)(=O)N2CCN(Cc3cccs3)CC2)cc1, which Potency is on record?
The Potency was inconclusive: 29.1 µM [inhibitor, single point].

Which Potency does the source give for COc1ccc(Cc2noc(CN3CCCN(C4Cc5ccccc5C4)CC3)n2)cc1OC here?
The Potency was inconclusive: 18.4 µM [inhibitor, single point].

With CCOC(=O)CN1C(=O)C(=O)N(Cc2c(F)cccc2Cl)C1=O as the molecule, how does the Potency read?
The Potency was “inactive”.

With Cn1c(=O)[nH]c(=O)c2c1nc(N1CCCCC1)n2CC(O)COc1ccc([N+](=O)[O-])cc1 (stereo not given) as the molecule, how does the Potency read?
Its Potency is inconclusive: 18.4 µM [inhibitor, single point].

Which Potency does the source give for O=C(N/N=C/c1ccc(F)cc1)c1cccc(NC(=O)c2ccccc2Cl)c1 here?
Its Potency is inconclusive: 20.6 µM [inhibitor, single point].
